Positions count from the first letter of the chain named.
B1: 64 (antibody)
heavy: EVQLVQSGAEVKKPGASVKVSCKVSGYTLTELSMQWVRQAPGKGLEWMGGFDPDDAETMYAEKFQGRLTVTEDTSTDTVYMELSSLRSEDTAVYFCATSPGYDFFDYWGQGTLVTVSSASTKGPSVFPLAPSSKSTSGGTAALGCLVKDYFPEPVTVSWNSGALTSGVHTFPAVLQSSGLYSLSSVVTVPSSSLGTQTYICNVNHKPSNTKVDKRV[omitted - human IgG1 Fc with changes]
light: QSALTQPASVSGSPGQSITISCTGTSSDVGGYNYVSWYQQHPGKAPKLMIYEVSNRPSGVSNRFSGSNSGNTATLTINRVEAGDEADYYCQVWDSSNDLLIFGGGTKLTVLGQPKAAPSVTLFPPSSEELQANKATLVCLISDFYPGAVTVAWKADSSPVKAGVETTTPSKQSNNKYAASSYLSLTPEQWKSHRSYSCQVTHEGSTVEKTVAPTECS
B2: 56 (antibody)
heavy: EVQLVQSGAEVKKPGASVKVSCKVSGYTLTELSMQWVRQAPGKGLEWMGGFDPDAGETMYAEKFQGRLTVTEDTSTDTVYMELRSLTSEDTALYFCATSPGYDFFDYWGQGTLVTVSSASTKGPSVFPLAPSSKSTSGGTAALGCLVKDYFPEPVTVSWNSGALTSGVHTFPAVLQSSGLYSLSSVVTVPSSSLGTQTYICNVNHKPSNTKVDKRV[omitted - human IgG1 Fc with changes]
light: B1 light
B3: 70 (antibody)
heavy: EVQLVQSGAEVKKPGASVKVSCKVSGYTLTELSMQWVRQAPGKGLEWMGGFDPDDGETMYAEKFQGRLTVTEDTSTDTVYMELSSLRSEDTAVYFCATSPGYDFFDYWGQGTLVTVSSASTKGPSVFPLAPSSKSTSGGTAALGCLVKDYFPEPVTVSWNSGALTSGVHTFPAVLQSSGLYSLSSVVTVPSSSLGTQTYICNVNHKPSNTKVDKRV[omitted - human IgG1 Fc with changes]
light: SYVLTQPPSVSVAPGKTARITCTGTSSDVGGYNYVSWYQQKPGQAPVLVVYEVSNRPSGIPERFSGSNSGNTATLTISRVEAGDEADYYCQVWDSSNDLLIFGGGTKLTVLGQPKAAPSVTLFPPSSEELQANKATLVCLISDFYPGAVTVAWKADSSPVKAGVETTTPSKQSNNKYAASSYLSLTPEQWKSHRSYSCQVTHEGSTVEKTVAPTECS
B4: 180 (antibody)
heavy: EVQLVQSGAEVKKPGASVKVSCKVSGYTLTELSMQWVRQAPGKGLEWMGGFDPDDGETMYAEKFQGRLTVTEDTSTDTVYMELRSLTSEDTALYFCATSPGYDFFDYWGQGTLVTVSSASTKGPSVFPLAPSSKSTSGGTAALGCLVKDYFPEPVTVSWNSGALTSGVHTFPAVLQSSGLYSLSSVVTVPSSSLGTQTYICNVNHKPSNTKVDKRV[omitted - human IgG1 Fc with changes]
light: SYVLTQPPSVSVAPGQTARITCGGSDIGDEIVHWYQQKPGQAPVLVVYDDSDRPSGIPERFSGSNSGNTATLTISRVEAGDEADYYCQVWDSSSDHLIFGGGTKLTVLGQPKAAPSVTLFPPSSEELQANKATLVCLISDFYPGAVTVAWKADSSPVKAGVETTTPSKQSNNKYAASSYLSLTPEQWKSHRSYSCQVTHEGSTVEKTVAPTECS
B5: 63 (antibody)
heavy: EVQLVQSGAEVKKPGASVKVSCKVSGYTLTELSMQWVRQAPGKGLEWMGGFDPDEGETMYAEKFQGRLTVTEDTSTDTVYMELSSLRSEDTAVYFCATSPGYDFFDYWGQGTLVTVSSASTKGPSVFPLAPSSKSTSGGTAALGCLVKDYFPEPVTVSWNSGALTSGVHTFPAVLQSSGLYSLSSVVTVPSSSLGTQTYICNVNHKPSNTKVDKRV[omitted - human IgG1 Fc with changes]
light: B1 light
B6: 83 (antibody)
heavy: EVQLVQSGAEVKKPGASVKVSCKVSGYTLTELSMQWVRQAPGKGLEWMGGFDPDEGETMYAEKFQGRLTVTEDTSTDTVYMELSSLRSEDTAVYFCATSPGYDFFDYWGQGTLVTVSSASTKGPSVFPLAPSSKSTSGGTAALGCLVKDYFPEPVTVSWNSGALTSGVHTFPAVLQSSGLYSLSSVVTVPSSSLGTQTYICNVNHKPSNTKVDKRV[omitted - human IgG1 Fc with changes]
light: B4 light with Q16K, S25N, D26N, D29S, E30K, I31S, S94N, H96L
B7: 79 (antibody)
heavy: EVQLVQSGAEVKKPGASVKVSCKVSGYTLTELSMQWVRQAPGKGLEWMGGFDPDDAETMYAEKFQGRLTVTEDTSTDTVYMELRSLTSEDTALYFCATSPGYDFFDYWGQGTLVTVSSASTKGPSVFPLAPSSKSTSGGTAALGCLVKDYFPEPVTVSWNSGALTSGVHTFPAVLQSSGLYSLSSVVTVPSSSLGTQTYICNVNHKPSNTKVDKRV[omitted - human IgG1 Fc with changes]
light: B4 light with Q16K, S25N, D26N, D29S, E30K, I31S, S94N, H96L
B8: 138 (antibody)
heavy: EVQLVQSGAEVKKPGASVKVSCKVSGYTLTELSMQWVRQAPGKGLEWMGGFDPDDAETMYAEKFQGRLTVTEDTSTDTVYMELRSLTSEDTALYFCATSPGYDFFDYWGQGTLVTVSSASTKGPSVFPLAPSSKSTSGGTAALGCLVKDYFPEPVTVSWNSGALTSGVHTFPAVLQSSGLYSLSSVVTVPSSSLGTQTYICNVNHKPSNTKVDKRV[omitted - human IgG1 Fc with changes]
light: B4 light with Q16K, S25D, D26N, D29S, E30K, I31S, S94N, H96L
B9: 173 (antibody)
heavy: EVQLVQSGAEVKKPGASVKVSCKVSGYTLTELSMQWVRQAPGKGLEWMGGFDPDEGETMYAEKFQGRLTVTEDTSTDTVYMELRSLTSEDTALYFCATSPGYDFFDYWGQGTLVTVSSASTKGPSVFPLAPSSKSTSGGTAALGCLVKDYFPEPVTVSWNSGALTSGVHTFPAVLQSSGLYSLSSVVTVPSSSLGTQTYICNVNHKPSNTKVDKRV[omitted - human IgG1 Fc with changes]
light: B4 light with V77A, E78Q
B10: 69 (antibody)
heavy: EVQLVQSGAEVKKPGASVKVSCKVSGYTLTELSMQWVRQAPGKGLEWMGGFDPDDAETMYAEKFQGRLTVTEDTSTDTVYMELRSLTSEDTALYFCATSPGYDFFDYWGQGTLVTVSSASTKGPSVFPLAPSSKSTSGGTAALGCLVKDYFPEPVTVSWNSGALTSGVHTFPAVLQSSGLYSLSSVVTVPSSSLGTQTYICNVNHKPSNTKVDKRV[omitted - human IgG1 Fc with changes]
light: B3 light

Molecular target: T1, recombinant MBP-mutCALR Type 1 fusion protein (Homo sapiens, UniProt P27797, DEL40-40)
T1 construct: His6 (N); purchased Cepter (cepterbiopartners.com), custom made
Assay: Biacore SPR binding kinetics, Experiment 2 (parental and variant antibodies)
Settings: Biacore 8K, 25° C., 1:1 binding model
Protocol: The amino acid sequence of recombinant MBP-mutCALR Type 1 fusion protein used in Experiments 1 and 2 is:
Experiment 2: Recombinant MBP-mutCALR Type 1 fusion protein was custom made at Cepter (cepterbiopartners.com). Data for the interaction of antibodies with recombinant mutCALR protein were collected at 25° C. on a Biacore 8K instrument (Cytiva, Marlborough, Mass.), and all reagents were obtained from Cytiva unless otherwise specified. The experiments were conducted using Tris-buffered saline (pH 7.2), 0.005% Surfactant P20, 1 mM CaCl2) as running buffer. To prepare the capture surfaces, anti-human IgG (Fc) antibodies (Product #29234600) was amine-coupled onto a CM4 chip (Product #BR100534) under standard conditions using an Amine Coupling Kit (Product #BR100050). Anti-mutCALR antibodies were captured onto the chip surface by injecting over flow cell 2 only at a flow rate of 10 μL/min for 30 seconds. […] Recombinant MBP-mutCALR Type 1 fusion protein was prepared at nominal concentrations of 0, 0.75, 2.22, 6.67, 20, and 60 nM and injected over both flow cells 1 and 2 for 150 seconds at a flow rate of 69 L/min, followed by a 230-second dissociation phase at the same flow rate. The kinetics parameters were obtained by applying 1:1 binding model to fit the data from multiple-cycle injection experiments using Biacore Insight Evaluation software.

| ka [M⁻¹ s⁻¹] | kd [s⁻¹] | Molecule |
| --- | --- | --- |
| 3.89e+06 | 0.00248 | B1 |
| 690000 | 0.00212 | B2 |
| 987000 | 0.000953 | B3 |
| 1e+07 | 0.127 | B4 |
| 2.83e+06 | 0.000691 | B5 |
| 5.62e+06 | 0.00992 | B6 |
| 4.53e+06 | 0.00631 | B7 |
| 7.86e+06 | 0.00688 | B8 |
| 5.35e+06 | 0.00349 | B9 |
| 9.94e+06 | 0.00527 | B10 |

Reference: patent US20230272055A1, “ANTI-MUTANT CALRETICULIN (CALR) ANTIBODIES AND USES THEREOF” (Incyte Corporation, priority 2021, published 2023)
